# Data from PubChem BioAssay AID662 (National Center for Advancing Translational Sciences (NCATS), 2007).
# In all, about 71,000 compounds went through this assay and about 1,800 (2.5%) were called active. The shares of active, inactive and inconclusive entries below differ from those in the screen. The call rests on the fitted dose curve; in most records, active means well fitted activation curve with a large enough effect in the signal ratio, with a control signal flat (not every such curve was filed as active); inconclusive means small, poorly fitted or top-dose-only effect, or effect the other way, or a change in a side signal; inactive means flat fitted curve, though single readings scatter; the % refers to the signal ratio. Potencies of inconclusive entries are doubtful fits and often do not repeat.
# Experiment: Cell signaling CRE-BLA (Fsk stim); on activity change, negative = inhibition: % of control where 0% means no effect
# Conditions: CHO CRE-bla reporter (cAMP response element driving beta-lactamase), forskolin EC10, beta-lactamase ratio; activity change, negative = inhibition: at 38.2 µM (top of the series) unless noted
# From the text: NIH Molecular Libraries Screening Centers Network [MLSCN]
# NIH Chemical Genomics Center [NCGC]
# Assay Provider: Marshall W. Nirenberg, U.S. National heart lung & blood institute
# Memories persist for different lengths of time, from seconds or minutes to a lifetime. There are two kinds of memory: short-term memory (STM) and long-term memory (LTM). STM lasts for minutes to hours, which maybe mediated by modifications of molecules involved in synaptic functions. LTM lasts for days or longer, and may be due to the formation of new synapses or restructuring of existing synapses. LTM, but not STM, requires gene transcription and synthesis of proteins. CREB (cyclic-AMP Responsive Element Binding Protein) is one of the candidates plays an important role for enhancement of some types of LTM. CREB, a family of transcription factors, regulates the transcription of genes containing cAMP Responsive Elements (CRE). CRE is a nucleotide sequence often found in the promoter regions of genes that are binding sites for CREB.
# Using a beta-lactamase reporter-gene under control of cAMP responsive element, a cell-based assay [CellSensor(TM) CRE-bla CHO developed by Invitrogen Corp.] was used to measure forskolin-induced signaling. Library compounds were measured for their ability to modulate positively or negatively the action of EC10 NKH 477, a water soluble forskolin, on reporter gene activity. Compounds were screened in a titration series in 1536-well format. Positive and negative modulators were identified based on the AC50 values derived from the screening data.
# NCGC Assay Protocol Summary
# 2000 cells/5uL in Opti-MEM medium containing 0.5% dialyzed FBS, 0.1 mM NEAA, 1 mM sodium pyruvate and 10 mM HEPES was dispensed into 1536-well plates and cells were cultured at 37 degrees Celsius overnight. […] And then the plates were incubated at 37 degrees Celsius for 3 hours. 1 uL of CCF4-dye mixture was added to each well. After incubated at room temperature for 2 hours the plates were measured on an EnVision plate reader at Excitation 405nm, Emission1=460nm and Emission 2=530nm. The %Activity was determined from the ratio of 460nm/530nm.
# Keywords: NIH Roadmap, MLSCN, MLSMR, qHTS, NCGC, CRE, beta-lactamase reporter-gene assay.
# Potency means the concentration at half of the fitted maximal effect; tags describe the fitted curve by direction and shape.
SMILES,Potency,"activity change, negative = inhibition"
COC(=O)c1[nH]c2ccc(C)cc2c1NC(=O)CN1CCCC(C)(C)C1,inactive,–
COC(=O)c1ccccc1NC(=O)N1CCN(S(=O)(=O)c2ccc(Cl)cc2)CC1,inactive,–
Cc1noc(C)c1C(=O)N1CCC[C@@]2(CCN(C(c3ccccc3)c3ccccc3)C2)C1,inactive,–
COc1cc2c(cc1OC)C(c1cccs1)NCC2 (stereo unspecified),–,inconclusive: 27.4%
Cc1cccc(-n2c(O)c(C=Nc3ccc4c(c3)OCO4)c3ccccc3c2=O)n1,–,inconclusive: 24.2%
C/C(=C\C(=O)c1ccc(C)o1)Nc1ccc2c(c1)OCO2,–,inconclusive: -14.9%
Cc1c(C(=O)NCCC2=CCCCC2)oc2ccc(S(=O)(=O)N3CCOCC3)cc12,–,inconclusive: -18.4%
Cc1noc(C)c1CSc1ncnc2sc3c(c12)CCC3,–,inconclusive: 1.4%
O=C(CN1CCCC1)N1CCCc2c1c(=O)oc1ccc(OCc3ccccc3)cc21,inactive,–
Cc1ccc(C2C(C#N)=C(N)SC(N)=C2C#N)c(C)c1,inactive,–
Brc1ccc(C2Nc3cccc4cccc(c34)N2)o1,–,inconclusive: 13.8%
O=c1c(-c2cc(F)cc(F)c2)nc2cncnc2n1-c1ccccc1,"inconclusive: 12.6 µM [rising, partial curve]",–
Cc1ccc2nc(CC(=O)c3ccc4ccccc4c3)c(=O)[nH]c2c1,"inconclusive: 0.316 µM [rising, single point]",–
COc1ccc(OC)c(NC(=O)C2CC(=O)N(c3ccccc3)C2)c1 (stereo unspecified),"inconclusive: 25.1 µM [rising, single point]",–
OC1CNCc2cc3c(cc21)OCCO3 (stereo unspecified),inactive,–
Cc1cc(C)c2c(=O)[nH]c(SCC(=O)N3CCCCC3)nc2n1,active: 2.51 µM,–
COc1cccc(-c2cc(NCc3cccnc3)ncn2)c1,–,inconclusive: 20.5%
CCNc1ncc2nc(C)c(=O)n(Cc3cccc(OC)c3)c2n1,active: 10 µM,–
Cc1cc(=O)[nH]c2c(C)c(Cl)ccc12,inactive,–
COCCNC(=O)C(c1ccc(F)cc1)N(CC1CCCO1)C(=O)CCC(=O)Nc1ccccn1 (stereo unspecified),"inconclusive: 5.01 µM [rising, single point]",–
COc1ncnc2c1N=C1CC(C)(C)CC(N)=C1S2,"inconclusive: 10 µM [rising, partial curve, poor fit]",–
COc1cc(C(=O)NCCc2cn3ccc(C)cc3n2)cc(OC)c1OC,"inconclusive: 3.98 µM [rising, partial curve]",–

SMILES,Potency,"activity change, negative = inhibition"
CCOc1ccc(N(Cc2cc3cc(OC)ccc3[nH]c2=O)S(C)(=O)=O)cc1,"inconclusive: 12.6 µM [rising, single point]",–
Cn1c(=O)c2c(nc3sccn32)n(C)c1=O,–,inconclusive: 11%
O=c1[nH]c(=O)n(C2CCCCCC2)c(O)c1C=NCc1ccc(F)cc1,active: 12.6 µM,–
CC(=O)Nc1ccc(S(=O)(=O)NCc2ccc(C(=O)NCCN3CCCCCC3)cc2)cc1,"inconclusive: 0.0316 µM [rising, full curve]",–
CCCn1c(=O)c2ccccc2n2c(SCC(=O)Nc3cc(C)on3)nnc12,inactive,–
O=C(CCCN1C(=O)C2C3C=CC(C3)C2C1=O)N1CCN(c2ccccc2)CC1 (stereo unspecified),–,inconclusive: 5.83%
c1ccc(Nc2c3c(nc4ncnn24)CCC3)cc1,"inconclusive: 10 µM [rising, single point]",–
COc1cccc(C2CC(c3ccccc3Cl)n3nnnc3N2)c1 (stereo unspecified),"inconclusive: 10 µM [rising, single point]",–
O=C(NCc1ccco1)c1ccc2nc3sc4c(c3c(=O)n2c1)CCCC4,"inconclusive: 0.0398 µM [falling, full curve, poor fit]",–
CCOC(=O)N1CCC(NC(=O)CSc2cc(=O)n(C)c3ccc(Cl)cc23)CC1,–,inconclusive: -1.69%
Cc1nc2cc(-c3cccc(F)c3)nn2c(N2CCOCC2)c1C,inactive,–
CCn1cc(C(=O)N2CC=C(c3ccccc3)CC2)c(=O)c2ccc(C)nc21,"inconclusive: 10 µM [rising, partial curve]",–
NC(N)=NC(N)=Nc1cccc(Cl)c1,–,inconclusive: -17.8%
O=C1c2ccccc2NC2CCCCC12 (stereo unspecified),–,inconclusive: -9.33%
O/N=C(\c1ccc(Cl)cc1)c1cc2ccccc2o1,inactive,–
Cc1nc2nc(C)n(-c3ccccc3)c2s1,"inconclusive: 12.6 µM [rising, single point]",–
CCOc1c(Br)ccc2c1sc1nc[nH]c(=O)c12,"inconclusive: 10 µM [falling, single point]",–
C[C@@](N)(Cc1ccc(O)c(O)c1)C(=O)O,inactive,–
Cc1cccc(-c2noc(CN(C(=O)c3c(-c4ccccc4Cl)noc3C)C(C)C)n2)c1,–,inconclusive: 23.1%
O=C(O)CCN1C(=S)CSC1=S,–,inactive: -9.85% [at 7.6 µM]
CSCCOC(=O)C1=C(C)NC(=O)CC1c1ccccc1Cl (stereo unspecified),–,inconclusive: -3.78%
c1ccc(N2CCN(Cc3ccsc3)CC2)nc1,–,inconclusive: -20.6% [at 7.6 µM]

SMILES,Potency,"activity change, negative = inhibition"
N#Cc1ccc(CSc2nnc(NC(=O)C3CCCO3)s2)cc1 (stereo unspecified),"inconclusive: 3.16 µM [falling, single point]",–
Cc1ccc(SCC(=O)NCC(C)C)cc1,"inconclusive: 0.01 µM [rising, full curve, poor fit]",–
CCOC(=O)Nc1sc2c(c1C(=O)OCC)CCC2,inactive,–
CCc1nnc(NC(=O)C2CCCN(c3nc(C)cc(C)n3)C2)s1 (stereo unspecified),inactive,–
O=C(N1CCOCC1)N1CCN(c2nc(-c3ccccc3)cs2)CC1,–,inconclusive: 12.2%
O=C(NCc1nc(-c2ccccc2)no1)c1ccc(Br)o1,–,inconclusive: 0.714%
Cc1c(C(=O)N2CCN(c3ncccn3)CC2)sc2nc3n(c(=O)c12)CCCC3,"inconclusive: 12.6 µM [rising, partial curve]",–
O=C(O)C1CCN(C(=O)c2scc3c2OCCO3)CC1,–,inconclusive: 1.89%
CCOc1ccc(NC(=O)c2oc3ccccc3c2NC(=O)C(C)C)cc1,inactive,–
COc1ccccc1NC(=O)C1=C(C)NC2=C(C(=O)CCC2)C1c1ccc2c(c1)OCO2 (stereo unspecified),inactive,–
COc1cc(S(=O)(=O)N(C)C)ccc1F,inactive,–
Cc1cnc(CNc2ncncc2-c2c(C)noc2C)cn1,–,inconclusive: 15.1%
Cn1c(SCC(=O)N2CCOCC2)nnc1-c1cccc(NC(=O)c2ccccc2)c1,inactive,–
Cc1cccc(NC(=O)Cn2cnc3ccc(S(=O)(=O)N4CCC(C)CC4)cc3c2=O)n1,inactive,–
CCSc1nc2c(c(=O)[nH]1)C(c1cccnc1)C(C(=O)OC(C)C)=C(C)N2 (stereo unspecified),–,inconclusive: 27%
CCOC(=O)CSc1cccc2cccnc12,–,inconclusive: -24.8%
Cc1nn(Cc2ccccc2)c(Cl)c1C(=O)OCc1nnc(-c2ccc(Cl)cc2)o1,inactive,–
COC(=O)C1=C(NC(=O)c2cccs2)CCS1,–,inconclusive: 33.3%
COc1ccc(CN2C(=O)CCC2(C)C(=O)NC2CCCCC2)c(OC)c1 (stereo unspecified),"inconclusive: 2.51 µM [rising, full curve, poor fit]",–
C=CCn1c(SCc2nc3ccccc3nc2C)nnc1-c1ccoc1C,"inconclusive: 12.6 µM [rising, partial curve]",–
CCOC(=O)c1oc2ccccc2c1CN1CCN(c2ccccc2)CC1,inactive,–
CC(C)CN(CC(C)C)S(=O)(=O)N1CCC(C(=O)NCc2cccs2)CC1,–,inconclusive: 3.49%

SMILES,Potency,"activity change, negative = inhibition"
c1ccc(-c2nnc3sc(-c4ccncc4)nn23)cc1,"inconclusive: 0.02 µM [rising, full curve]",–
O=c1c(O)c(-c2ccc(O)cc2)oc2cc(O)ccc12,"inconclusive: 31.6 µM [falling, single point]",–
Cc1noc(NS(=O)(=O)c2ccc(N3Cc4ccccc4C3=O)cc2)c1C,active: 12.6 µM,–
Cc1ccc(-c2nn3c(-c4ccco4)nnc3c3ccccc23)cc1S(=O)(=O)NCC1CCCO1 (stereo unspecified),"inconclusive: 2 µM [rising, full curve]",–
NC(=O)CSc1nc2scc(-c3ccco3)c2c(=O)n1-c1ccccc1,"inconclusive: 10 µM [rising, partial curve]",–
Cc1nn(C(=O)c2ccco2)c(C)c1CN1C(=O)c2ccccc2C1=O,"inconclusive: 5.01 µM [rising, partial curve]",–
CC(=O)Nc1ccc(S(=O)(=O)NCCN2CCOCC2)cc1,"inconclusive: 0.00398 µM [rising, full curve]",–
Cc1ccc(-n2cc3c(=O)n(C)c(=O)n(C)c3c2)cc1C,inactive,–
CC(C)CCNC(=O)NC(=O)CSc1nnc(COc2ccccc2Cl)o1,inactive,–
COc1ccc(-c2nnc3ccc(SCC(=O)NCc4ccco4)nn23)cc1,inactive,–
Clc1ccc(C2=Nn3c(nnc3-c3n[nH]c4c3CCC4)SC2)cc1,active: 2.51 µM,–
N#Cc1c(-c2ccco2)cc(-c2cccnc2)nc1N,inactive,–
CCCCC(=O)Nc1ccc(NC(=O)C2CC2)nc1,inactive,–
CC(C)=CC(=O)OCC(=O)NC(=O)NC(C)(C)C,–,inconclusive: 5.67%
COc1nc(-c2ccccc2)cc(C(F)(F)F)n1,inactive,–
Cc1noc(C)c1-c1cncnc1N1CCN(C)CC1,inactive,–
CCn1c(=N)c(C(=O)NCCCOC)cc2c(=O)n3cccc(C)c3nc21,"inconclusive: 0.631 µM [rising, full curve, poor fit]",–
Cc1cc(=O)oc(C)c1C(=O)NCCC(C)C,inactive,–
CCN(C(=O)Cc1cccs1)c1nnc(-c2cccnc2)s1,–,inconclusive: 22.7%
Cc1ccc(N(CC(=O)N2CCn3c2nc2ccccc23)S(=O)(=O)c2c(C)n[nH]c2C)cc1,–,inconclusive: 15.2%
